Experimental data reported in PubChem BioAssay AID485294 (National Center for Advancing Translational Sciences (NCATS), 2010).
In all, about 370,000 compounds went through this assay and about 150 (0.041%) were called active. This list was built around the results that the source calls inconclusive (neither active nor inactive); the mix of calls is not that of the screen. Calls follow the shape of the dose curve; as a rule, active = well fitted inhibition curve with a large enough effect; inconclusive = small, poorly fitted or top-dose-only effect; inactive = flat fitted curve, though single readings scatter. No potency is given beside an inconclusive call; the fits are too rough.
Also: nearly all actives have a fitted effect of over 25% in size.
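For activity change, negative = inhibition in this document: 0% = no-compound wells and -100% = no-enzyme wells.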
Potency is read from the fitted curve at half-maximal effect; tags tell the direction and shape of the fitted curve.

The compounds below were run against Beta-lactamase (Escherichia coli (strain K12)) (UniProt P00811) (assay: qHTS Inhibitors of AmpC Beta-Lactamase (assay with detergent)). Conditions: AmpC hydrolysis of nitrocefin, absorbance 480 nm, 0.01% Triton; activity change, negative = inhibition: at 114 µM (top of the series).
Sequence of UniProt P00811 (P00811 whole entry, looked up): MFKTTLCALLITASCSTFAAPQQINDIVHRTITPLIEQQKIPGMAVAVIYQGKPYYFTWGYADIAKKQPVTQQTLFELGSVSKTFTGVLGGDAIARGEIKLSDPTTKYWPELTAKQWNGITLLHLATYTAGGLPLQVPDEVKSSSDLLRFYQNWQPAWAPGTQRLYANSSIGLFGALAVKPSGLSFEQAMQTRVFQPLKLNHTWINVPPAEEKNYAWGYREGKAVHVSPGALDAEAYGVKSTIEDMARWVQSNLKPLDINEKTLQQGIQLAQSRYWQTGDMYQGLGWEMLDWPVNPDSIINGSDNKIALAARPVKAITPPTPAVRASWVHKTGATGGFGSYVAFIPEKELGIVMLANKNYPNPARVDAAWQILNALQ
Method in brief: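 20 mM phosphate pH 7.0 + 0.01% (detergent screen) or 0.0001% Triton X-100; 5.3 nM AmpC reagent; cpd preinc 15 min RT; nitrocefin (800 uM stock) to start; A480 q20 s × 4 min; Activity was normalised to no-enzyme and no-compound control wells.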
For `O=S(=O)(NCc1ccccc1)c1ccc2c(c1)OCCO2`, the Potency was inconclusive [inhibitor, full curve, poor fit]. With `O=C(Nc1ccc2c(c1)C(=O)NC2=O)c1ccc(Cl)s1` the Potency was “inactive”. For `CN1CCN(CC(O)(c2ccc(Cl)cc2)c2ccc(Cl)cc2)CC1`, the Potency was inconclusive [inhibitor, full curve]. With `O=C1ON=C(c2ccccc2)/C1=C/c1ccc(OS(=O)(=O)c2ccccc2)cc1` the Potency was “inactive”. With `Cc1ccc(S(=O)(=O)Nc2cccc(C(=O)NCc3cccnc3)c2)cc1F` the Potency was “inactive”. With `CC(=O)Nc1ccc(Sc2ccccc2C(=O)N2CCCC2)cn1` the Potency was inconclusive [inhibitor, full curve, poor fit]. `CCN1CCN(CCCNc2ncnc3nc[nH]c23)CC1` was tested, and the Potency was inconclusive [inhibitor, partial curve]. With `Cc1ccc(CSCc2ccc(C(=O)NC3CC3)o2)cc1` the Potency was “inactive”. With `CC1=NOC(=O)/C1=C\c1ccc(-c2ccc(Br)cc2)o1` the Potency was inconclusive [inhibitor, single point]. With `CC1(CC(=O)N/N=C/c2ccc(OCc3ccc(Cl)cc3Cl)cc2)OCCCO1` the Potency was inconclusive [inhibitor, partial curve]. In the case of `Cc1ccc(Nc2nnc(SCC(=O)c3c(N)n(C4CC4)c(=O)[nH]c3=O)s2)cc1C`, the Potency is reported as inconclusive [inhibitor, full curve, poor fit]. In the case of `COc1cc(/C=C/C(=O)OCC(=O)N2CCOCC2)ccc1OCC#N`, the Potency is reported as inconclusive [inhibitor, partial curve, poor fit]. In the case of `CC(=O)N1N=C(c2ccc(NS(C)(=O)=O)cc2)CC1c1ccc2nccnc2c1` (configuration not stated), the Potency is reported as “inactive”. In the case of `COC(=O)c1cccc(Nc2c(-c3ccc(OC)cc3)nc3nc[nH]n23)c1`, the Potency is reported as “inactive”. For `COc1ccc(CCNC(=O)c2cc3sc(Cl)cc3n2C)cc1OC`, the Potency was inconclusive [inhibitor, partial curve, poor fit]. In the case of `C/C(=N\NC(=O)CCc1c[nH]c2ccccc12)c1ccc([N+](=O)[O-])cc1`, the Potency is reported as inconclusive [inhibitor, single point]. In the case of `CCC(=O)N(Cc1cc2ccc(C)cc2[nH]c1=O)c1ccccc1OC`, the Potency is reported as “inactive”. For `O=C(/C=C/c1ccc(Cl)cc1)NC1CC2CCC1C2` (configuration not stated), the Potency was “inactive”. In the case of `COc1ccc(CN(C)CC(=O)Nc2ccccc2C(=O)NC2CC2)cc1`, the Potency is reported as inconclusive [inhibitor, single point]. In the case of `COc1ccc(NC(=O)Nc2c[nH]c(=O)[nH]c2=O)cc1`, the Potency is reported as inconclusive [inhibitor, single point]. In the case of `CC(C)N1CCN(Cc2coc3ccccc3c2=O)CC1CCO` (configuration not stated), the Potency is reported as “inactive”. `COc1cc(OC)c2c(C)c(CC(=O)NCCc3ccccc3OC)c(=O)oc2c1` was tested, and the Potency was “inactive”. For `CCc1ccc(S(=O)(=O)c2cnc3ccc(OC)cc3c2N2CCCC(C)C2)cc1` (configuration not stated), the Potency was inconclusive [inhibitor, single point]. With `Cc1ccnc(NC(=O)c2cccc(S(=O)(=O)N3CCCc4ccccc43)c2)c1` the Potency was inconclusive [inhibitor, full curve, poor fit]. With `COc1ccc(CNc2nc(SC)n[nH]2)cc1OC` the Potency was inconclusive [inhibitor, full curve, poor fit]. For `Cc1noc(/C=C/c2ccc(-c3ccccc3Cl)o2)c1[N+](=O)[O-]`, the Potency was inconclusive [inhibitor, full curve, poor fit]. `CN(C(=O)COC(=O)c1ccc(=O)n(Cc2ccccc2)n1)C1CCS(=O)(=O)C1` (configuration not stated) was tested, and the activity change, negative = inhibition was inconclusive: -16.4% [inhibitor]. In the case of `NS(=O)(=O)c1ccc(CCNC(=O)CSc2ccc([N+](=O)[O-])cc2)cc1`, the Potency is reported as inconclusive [inhibitor, full curve]. With `CCN1C(=O)c2cccc3c(NC(=O)C(C)(C)C)ccc1c23` the Potency was inconclusive [inhibitor, full curve, poor fit]. In the case of `Cc1ccc(NC(=O)CN(C)CC(=O)Nc2ccc(F)c(Cl)c2)cc1`, the Potency is reported as inconclusive [inhibitor, full curve]. In the case of `CCOc1ccc(S(=O)(=O)NCCC(=O)N2CC(C)OC(C)C2)cc1` (configuration not stated), the Potency is reported as inconclusive [inhibitor, full curve, poor fit]. For `CCOC(=O)c1c(CN2CCN(c3ccccc3)CC2)oc2ccc(O)cc12`, the Potency was “inactive”. With `O=C(CSc1nncn2c1cc1occc12)Nc1ccccc1C(F)(F)F` the Potency was “inactive”. `CCOC(=O)C1CCCN(S(=O)(=O)c2ccc3c(c2)CCN3C(=O)CC)C1` (configuration not stated) was tested, and the Potency was “inactive”. For `CCOC(=O)C1CCN(C(=O)CN2C(=O)CSc3ccc(S(=O)(=O)N4CCOCC4)cc32)CC1`, the Potency was inconclusive [inhibitor, full curve, poor fit]. With `CC(C)NC(=O)c1cc(-c2ccc(Br)cc2)on1` the Potency was “inactive”. With `Cc1nc(Oc2cccc(Cl)c2)c2oc3ccccc3c2n1` the Potency was inconclusive [inhibitor, single point]. `COc1ccc(/C=N/NC(=O)c2nn(-c3ccc(C)c(C)c3)c(=O)c3ccccc23)cc1` was tested, and the Potency was “inactive”. In the case of `S=c1[nH]nc(-c2cccc(Cl)c2)n1/N=C/c1ccco1`, the Potency is reported as “inactive”. In the case of `O=C1c2cccc3cccc(c23)C(=O)N1CC1CCN(CC(O)COc2ccc3ccccc3c2)CC1` (configuration not stated), the Potency is reported as “inactive”. `CN(C)C(=O)[C@H]1C[C@H]1[C@@H](O)[C@H](CO)NC(=O)[C@H](Cc1ccccc1)NC(=O)OC(C)(C)C` was tested, and the Potency was inconclusive [inhibitor, full curve, poor fit]. For `CCS(=O)(=O)N1CCC(C(=O)NCCN2CCOCC2)CC1`, the Potency was inconclusive [inhibitor, partial curve, poor fit]. With `Cc1ccc(-c2cc(C(=O)N/N=C/c3c(C)nn(C)c3C)c3ccccc3n2)c(C)c1` the Potency was inconclusive [inhibitor, full curve, poor fit]. `O=C(CCSCc1ccccc1Cl)NCc1ccco1` was tested, and the Potency was inconclusive [inhibitor, single point]. For `COc1cccc(C(=O)Nc2ccc(NC(=O)c3ccco3)cn2)c1`, the Potency was inconclusive [inhibitor, full curve]. In the case of `CCOC(=O)c1c(C)nc(-c2ccccc2)nc1N`, the Potency is reported as inconclusive [inhibitor, full curve, poor fit]. For `COC(=O)c1cc(NC(=O)C2CCCN(S(=O)(=O)c3c(C)n[nH]c3C)C2)cc(C(=O)OC)c1` (configuration not stated), the Potency was inconclusive [inhibitor, partial curve]. For `COc1cccc(C(=O)NCCC2=CCCCC2)c1OC`, the Potency was inconclusive [inhibitor, full curve]. In the case of `O=C(Nc1cccc(F)c1)c1ccc(S(=O)(=O)NCC2CCCO2)cc1` (configuration not stated), the Potency is reported as inconclusive [inhibitor, full curve, poor fit]. With `CCOc1ccc(OCCCC(=O)NNC(=O)c2ccncc2)cc1` the Potency was inconclusive [inhibitor, full curve, poor fit]. For `COc1ccc([N+](=O)[O-])cc1NC(=O)c1cccs1`, the Potency was “inactive”. With `CCn1c(CSCc2ccc(C)cc2)n[nH]c1=S` the Potency was inconclusive [inhibitor, full curve, poor fit]. With `Cc1c(C(=O)NCc2ccco2)oc2c(F)cccc12` the Potency was inconclusive [inhibitor, full curve, poor fit]. With `Cc1ccnc(NS(=O)(=O)c2ccc(NS(=O)(=O)c3ccc(Br)cc3)cc2)n1` the Potency was inconclusive [inhibitor, partial curve, poor fit]. In the case of `COc1ccc(NC(=O)CN(C)C(=O)CC2CCCC2)cc1`, the Potency is reported as inconclusive [inhibitor, partial curve, poor fit]. `O=C(CCN1C(=O)c2ccccc2C1=O)NCCCn1ccnc1` was tested, and the Potency was inconclusive [inhibitor, full curve, poor fit]. `Cc1ccc(CNC(=O)c2cnc(N3CCCCC3)c3ccccc23)cc1` was tested, and the Potency was “inactive”. `O=C(/C=C/c1ccc2c(c1)OCO2)N1CCOCC1` was tested, and the Potency was inconclusive [inhibitor, partial curve]. In the case of `C#CCOCCOCCOCCNc1nc(N2CCN(C(=O)Cn3cc(CCCN=C(N)N)nn3)CC2)nc(N2CCN(C(=O)Cn3cc(CCCN=C(N)N)nn3)CC2)n1`, the Potency is reported as inconclusive [inhibitor, full curve, poor fit]. With `C/C(=N\OCC(=O)OCC(=O)Nc1cc(S(C)(=O)=O)ccc1Cl)c1ccc2c(c1)OCO2` the Potency was inconclusive [inhibitor, partial curve]. With `CC(=O)c1cc(C#N)c(N2CC(C)OC(C)C2)nc1C` (configuration not stated) the Potency was inconclusive [inhibitor, partial curve]. For `CCNS(=O)(=O)c1ccc(NC(=O)c2ccccc2)cc1`, the Potency was “inactive”. For `COc1ccc(N(CC(=O)N/N=C/c2cccs2)S(=O)(=O)c2ccc(OC)c(OC)c2)cc1`, the Potency was inconclusive [inhibitor, full curve]. With `CCCCCn1c(=O)[nH]c2cc(C(=O)NCCN3CCC(C)CC3)ccc2c1=O` the Potency was “inactive”. `COc1ccc(NC(=O)C(=O)NCCN2CCN(C(=O)c3cccs3)CC2)cc1` was tested, and the Potency was inconclusive [inhibitor, partial curve]. In the case of `COC(=O)CCCC1=CC2=C(c3ccccc3)C(=O)C(C)(OC(=O)C3CCCC3)C(=O)C2=CN1CCc1c[nH]c2ccccc12` (configuration not stated), the Potency is reported as “inactive”. In the case of `O=C(CSc1ccc(Cl)cc1)NC(=O)c1ccccc1`, the Potency is reported as inconclusive [inhibitor, single point].
